From PubChem BioAssay AID504832 (National Center for Advancing Translational Sciences (NCATS), 2011)
The campaign covered roughly 310,000 compounds. About 18,000 (5.8%) were called active. The shares of active, inactive and inconclusive entries below differ from those in the screen. Calls follow the shape of the dose curve; as a rule, active = well fitted inhibition curve with a large enough effect; inconclusive = small, poorly fitted or top-dose-only effect, or another doubt; inactive = no such curve, though single readings can be large or run the other way. No potency is given beside an inconclusive call; the fits are too rough.

Assay: Primary qHTS for delayed death inhibitors of the malarial parasite plastid, 48 hour incubation
Details: P. falciparum luciferase growth in erythrocytes; series mostly up to 28.7 µM; activity change, negative = inhibition: at the top concentration
Procedure, shortened: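 Compounds are pin-transferred into medium, infected erythrocytes (2% hematocrit, 0.1% parasitemia final) are added, and plates sit one parasite generation at 37 C in 5% CO2. Detection reagent is then added and luminescence measured.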
% is scaled to controls: 0 for no effect and ±100 for the full control effect; potency is read from the fitted curve at half-maximal effect; tags tell the direction and shape of the fitted curve.

SMILES	activity change, negative = inhibition	Potency
Cc1ccccc1CSc1nncn1N	inactive: 0.289%	–
CCN(CC)C(=O)CN(c1cc2c(cc1OC)oc1ccccc12)S(=O)(=O)c1ccccc1	–	active: 9.28 µM
Cc1sc2nc3n(c(=O)c2c1C)NC(=O)CC3	–	inconclusive [inhibitor, single point]
CCCN(C(=O)c1ccc(OCC(C)C)cc1)c1c(N)n(Cc2ccccc2)c(=O)[nH]c1=O	inactive: 7.81%	–
Cc1ccccc1-c1nc(C(=O)NCC2CCCO2)cc2c1[nH]c1ccccc12 (centres undefined)	–	inconclusive [inhibitor, full curve, poor fit]
O=C(COc1ccc2ccccc2c1Br)N1CCCCC1	inactive: 87.6%	–
CCOC(=O)c1c(C)[nH]c(C(=O)C(Cc2ccccc2)N(C)C)c1C (centres undefined)	–	inconclusive [inhibitor, partial curve, poor fit]
CCCCc1c(C)nc2nc(SCc3ccc(Cl)cc3)[nH]n2c1=O	inactive: -9.89%	–
NC(=O)CC(NC(=O)c1ccc(Br)cc1)c1ccc(N2CCCCCCC2)c([N+](=O)[O-])c1 (centres undefined)	inactive: 20.4%	–
CCN1CC(CN(C)Cc2cn(-c3ccc(C)cc3)nc2-c2ccc(F)cc2)CC1=O (centres undefined)	–	inconclusive [inhibitor, single point]
CC(C)(C)c1cc(C(=O)NCc2cc(F)cc3c2OCOC3)n(Cc2ccccc2)n1	–	inconclusive [inhibitor, single point]
Cc1cc(-c2ccc(C)c(S(=O)(=O)NCCN3CCC(C)CC3)c2)on1	–	inconclusive [inhibitor, single point]
O=C(NCCSCc1ccccc1)c1ccc(Cl)c(S(=O)(=O)N2CCOCC2)c1	–	active: 10.4 µM
CC(C)(C)NC(=S)NCc1ccco1	–	inconclusive [inhibitor, single point]
COc1ccccc1NC(=S)NCc1ccccc1Cl	–	inconclusive [inhibitor, single point]
COc1cc(N)c(Cc2nccc3cc(OC)c(OC)cc23)cc1OC	–	inconclusive [inhibitor, single point]
N/C(=N\OC(=O)Cc1cccs1)c1ccc(Cl)cc1	inactive: 37.1%	–
CC(C(=O)Nc1cc([N+](=O)[O-])ccc1Cl)N1CCN(c2ccccc2O)CC1 (centres undefined)	–	active: 6.57 µM
O=C(C1CCC1)N1CCN(c2ccnc3cc(Cl)ccc23)CC1	–	active: 13.1 µM
COc1cc(/C=C/C(=O)OCC(=O)NC(=O)NC23CC4CC(CC(C4)C2)C3)ccc1OCC#N	–	active: 14.7 µM
CCC(C)c1ccc(NC(=O)C2CCN(c3ccc(C(F)(F)F)cn3)CC2)cc1 (centres undefined)	–	inconclusive [inhibitor, full curve, poor fit]
C1=CCN(Cc2ccccc2)C1	inactive: 48.1%	–
CCC(C)Oc1nc2c(c(=O)n(C)c(=O)n2C)n1C (centres undefined)	inactive: 37.3%	–

SMILES	activity change, negative = inhibition	Potency
COC(=O)C1=C(c2ccc(OC(F)(F)F)cc2)C[C@@H]2CC[C@H]1N2C(=O)NCc1cccc2ccccc12	–	active: 1.65 µM
Cc1cc(NC(=O)CCC(=O)N(CC(=O)NCC2CCCO2)c2ccc(C)c(C)c2)no1 (centres undefined)	inactive: -5.54%	–
CCC1Oc2ccc(C)cc2N(CC(=O)NCc2cccc(OC)c2)C1=O (centres undefined)	–	inconclusive [inhibitor, full curve, poor fit]
CN(C)S(=O)(=O)c1cccc(NC(=O)c2ccc(S(=O)(=O)N3CCCCC3)cc2)c1	–	inconclusive [inhibitor, single point]
CC1CCCCC1n1c(-c2cccnc2)n[nH]c1=S (centres undefined)	inactive: 10.6%	–
CN(C(=O)COC(=O)c1cc([N+](=O)[O-])ccc1Sc1ccccc1)C1CCS(=O)(=O)C1 (centres undefined)	–	inconclusive [inhibitor, partial curve, poor fit]
Cc1ccc(Sc2ncccc2COC(=O)Nc2c(C)cccc2C)cc1	–	inconclusive [inhibitor, partial curve]
COCCn1c(-c2cc(OC)c(OC)c(OC)c2)nc2oc3cc(OC)ccc3c(=O)c2c1=O	–	inconclusive [inhibitor, partial curve]
COCCCNCCOCCOc1ccc(Cl)cc1Br	–	inconclusive [inhibitor, single point]
O=C(NNS(=O)(=O)c1ccc(Cl)cc1Cl)c1cc2ncc(C(F)(F)F)cc2s1	–	inconclusive [inhibitor, single point]
Cc1ccc(NC(=O)CN(C)CC(=O)Nc2ccccc2C#N)cc1	–	inconclusive [inhibitor, partial curve, poor fit]
CC(C)CCOc1ccc(Cl)cc1CN1CCOCC1	inactive: 12.8%	–
COc1ccccc1N(Cc1cc(=O)[nH]c2ccccc12)C(=O)c1cccc([N+](=O)[O-])c1	–	inconclusive [inhibitor, single point]
CC(C)Cn1c(N)c(C(=O)COC(=O)C2CC(=O)N(c3ccc4c(c3)OCCO4)C2)c(=O)n(C)c1=O (centres undefined)	–	inconclusive [inhibitor, partial curve, poor fit]
O=C(Nc1cccc(O)c1)c1ccc(C(=O)c2ccccc2)o1	–	inconclusive [inhibitor, full curve]
COC(=O)C1=C(c2ccc(F)cc2OCc2ccccc2)C[C@@H]2CC[C@H]1N2C(=O)NCc1ccc(N(C)C)cc1	–	active: 11.7 µM
CCCC(NC(=S)NCC1CCCO1)C12CC3CC(CC(C3)C1)C2 (centres undefined)	–	active: 2.62 µM
O=c1cc(O)c2c(=O)n(Cc3ccccc3)c3ccccc3c2o1	–	active: 8.28 µM
CCOC(=O)C1=C(CN2CCN(C(=O)c3ccco3)CC2)NC(=O)NC1c1ccccc1 (centres undefined)	–	inconclusive [inhibitor, partial curve]
O=C(CN1C(=O)NC2(CCCC2)C1=O)Nc1ccc(C(F)(F)F)cc1	inactive: 11.5%	–
Cc1ccc(S(=O)(=O)NCc2ccc3[nH]c(C)cc3c2)cc1	–	inconclusive [inhibitor, partial curve, poor fit]
CCc1nc2ccccc2n1CC(O)COc1ccc(NC(C)=O)cc1 (centres undefined)	–	inconclusive [inhibitor, full curve, poor fit]
N/C(=N\OS(=O)(=O)c1ccccc1)c1ccncc1	–	inconclusive [inhibitor, single point]

SMILES	activity change, negative = inhibition	Potency
COc1cc(OC)cc(-c2c(-c3cccs3)c3cc(-c4ccc5c(c4)OCO5)ccc3n2C)c1	inactive: 5.56%	–
Cc1ccc(NS(=O)(=O)c2ccc(C(=O)N3CCN(S(=O)(=O)c4ccccc4)CC3)cc2)cc1	–	inconclusive [inhibitor, single point]
COc1ccc(OC)c(NC(=O)c2cccc(N3C(=O)C4C5C=CC(C6CC56)C4C3=O)c2)c1 (centres undefined)	–	inconclusive [inhibitor, partial curve]
Clc1ccc(C(c2ccc(Cl)cc2)n2cc[n+](CC(OCc3ccc(Cl)cc3Cl)c3ccc(Cl)cc3Cl)c2)cc1 (centres undefined)	–	inconclusive [inhibitor, single point]
Cc1ccc2nc(SCC(=O)N3CCC(C)CC3)nc(=O)n2c1	inactive: -6.55%	–
COc1cccc(NC(=O)CCc2nnc3ccc(N4CCC(C)CC4)nn23)c1	–	inconclusive [inhibitor, single point]
Nc1nc(CN2CCN(c3ccccc3)CC2)nc(Nc2ccc(Cl)cc2)n1	–	inconclusive [inhibitor, partial curve]
C=CCc1cc(C)ccc1OCC(O)CN1CCN(c2ccccc2)CC1 (centres undefined)	inactive: -51.7%	–
COc1cc(SC)ccc1C(=O)OC(C)C(=O)Nc1ccc(NC(C)=O)cc1 (centres undefined)	inactive: 7.28%	–
C[C@@H]1C(NC(=O)c2ccccc2)CC2CC1C2(C)C (some centres undefined)	inactive: -14.1%	–
CCc1nnc(NC(=O)C2CCN(C(=O)c3ccccc3C)CC2)s1	inactive: -2.64%	–
Cc1ccc(N2C(=O)N(CC(=O)N3c4ccccc4CC3C)C(=O)C2C)cc1 (centres undefined)	inactive: 6.1%	–
CSc1ccccc1OCc1cc(C(=O)N2CCC(Oc3cccnc3)CC2)no1	–	active: 13.1 µM
CCN(CC)S(=O)(=O)c1cccc(NC(=O)c2ccc(C#N)cc2)c1	–	inconclusive [inhibitor, partial curve, poor fit]
CC(C)CN(CCOc1cccc(N2C(=O)C3=C(CCCC3)C2=O)c1)CC(C)C	–	inconclusive [inhibitor, single point]
O=C(NCC(c1cccnc1)N1CCN(c2ccccc2)CC1)C1CCCCC1 (centres undefined)	–	inconclusive [inhibitor, single point]
O=C(NC1CCCCC1)C(c1ccc2ncccc2c1)N(Cc1ccco1)C(=O)c1ccc2c(c1)OCCO2 (centres undefined)	–	active: 5.22 µM
CCCCc1nc2ccccc2c(N)c1CCC (tested in a mixture with another compound)	–	active: 9.28 µM
COCCNCCCCOc1ccccc1-c1ccccc1	–	inconclusive [inhibitor, single point]
O=C(O)C1CCN(C(=O)CSc2nc3cc(Cl)ccc3c(=O)n2Cc2ccccc2)CC1	–	inconclusive [inhibitor, single point]
CCOc1ccc(C(C)C)cc1S(=O)(=O)n1nc(C)cc1C	–	inconclusive [inhibitor, partial curve, poor fit]
O=C(NCCCN1CCCC1=O)C1CCN(S(=O)(=O)c2cccc(Cl)c2Cl)CC1	–	inconclusive [inhibitor, single point]
CCOC(=O)[C@@H]1[C@H]2COc3cc(OC)ccc3[C@@H]2N2C(=O)N(c3cccc(C)c3)C(=O)[C@@]12C	–	inconclusive [inhibitor, full curve, poor fit]
